We go through 42 compounds from ChEMBL document CHEMBL4888484, “Replenishing the malaria drug discovery pipeline: Screening and hit evaluation of the MMV Hit Generation Library 1 (HGL1) against asexual blood stage Plasmodium falciparum ,using a nano luciferase reporter read-out” (2022).

The whole screen tested about 150,000 compounds, of which about 540 (0.36%) showed an effect of 50% or more. The list shows a part of the results.

For the assay, the system named is Plasmodium falciparum. Put plainly: Primary screen in NF54 nanoGlo assay, in single point, at 2uM, 72h; a lower Z score goes with more inhibition. It counts as functional, Erythrocyte. The note with it: timepoint 72 hour.

As a reminder, the % Inhibition is the relative decrease from the control value, in per cent. As for `CN(C)c1cc(N(C)Cc2cnc(N)nc2)ncn1`, the “% Inhibition” value is on record as -13% and the Z score came out at 1.44.
Regarding `O=C(CCc1nc(C2=CCN(Cc3ccc(Cl)cc3)CC2)no1)NCc1ccc(F)cc1`, the “% Inhibition” value is on record as -11% and the Z score is listed as 1.27.
As for `CCCn1c(=O)oc2cc(S(=O)(=O)N3CCC(CC(=O)Nc4cccc(C)c4C)CC3)ccc21`, the “% Inhibition” value is recorded as -24% and the Z score is 2.23.
As to `O=C1CCC[C@@H]1CCn1c(-c2cccc(Br)c2)noc1=O`, the “% Inhibition” value was 9% and the Z score is -1.32.
Take `Cc1cc(=O)c(OCC(=O)N2CCN([C@@H](c3ccccc3)c3ccc(Cl)cc3)CC2)c[nH]1`: the “% Inhibition” value was 33% and the Z score is listed as -9.31.
As to `COc1ccc(CCN2C(=O)NC(=O)C3(Cc4c(Cl)cccc4N4CCN(C)CC43)C2=O)cc1OC` (centres undefined), the “% Inhibition” value is 1% and the Z score is given as -0.2.
For `OCc1cc2n(n1)CCN(CCc1c[nH]c3ccccc13)C2` the same measures were 3% and -0.52.
For `COc1ccc2c(c1)[C@@]1(CCN(S(=O)(=O)c3cccc(Cl)c3)C1)C(=O)N2C` the same measures were -15% and 1.96.
In the case of `CN(c1nccs1)S(=O)(=O)c1c(Br)cc2[nH]c(=O)oc2c1Cl`, the “% Inhibition” value is given as -3% and the Z score turned out to be 0.32.
On to `Cc1ccc(C)c(OCC#CCN2CCNCC2)c1`, for which the “% Inhibition” value was -12% and the Z score stood at 1.35.
Consider `O=C1CCN(C(=O)c2nccnc2-c2nc3ccccc3s2)CC1`, for which the “% Inhibition” value was found to be 2% and the Z score is given as -0.32.
For `Cc1cc(C)n(C[C@H](C)NCc2ccc(CO)cc2)n1` the same measures were -9% and 0.91.
For `CCCn1c(=O)oc2cc(NS(=O)(=O)c3ccc(C(C)C)cc3)ccc21` the same measures were -14% and 1.38.
Take `CCNC(=O)NC[C@H]1C[C@@H]2CCN1C[C@@H]2c1cc(-c2ccco2)nc(C)n1`: the “% Inhibition” value is listed as -6% and the Z score was determined as 0.75.
With `CC(C)(C)n1nnnc1CN1CCC[C@H](C(=O)c2ccc(F)cc2)C1`, the “% Inhibition” value is listed as 3% and the Z score is -0.26.
`CN(C)C1(C)CCC(Nc2cccc(F)c2C(N)=O)CC1` (centres undefined): the “% Inhibition” value is recorded as -3% and the Z score turned out to be 0.38.
For `COc1ccc(CCN2C(=O)NC(=O)C3(Cc4cccc(F)c4N4CCCC43)C2=O)cc1` (centres undefined), the “% Inhibition” value turned out to be 7% and the Z score is -0.82.
`Cc1ccc([C@@H]2CN(C(=O)c3ccncc3)[C@@H]3C4CCN(CC4)[C@@H]32)cc1`: the “% Inhibition” value is reported as 2% and the Z score is -0.28.
For `CCOc1ccc(-c2nc(-c3ccc4c(c3)oc(=O)n4C(C)C)no2)cc1OCC`, the “% Inhibition” value is recorded as 11% and the Z score is recorded as -1.07.
For `CC1(C)CC(NC2CCN(CC(F)(F)F)C2)C(C)(C)O1` (centres undefined) the same measures were -5% and 0.69.
On to `CCc1nccn1C[C@H](C)NCc1csc(C)n1`, for which the “% Inhibition” value is -2% and the Z score was found to be 0.39.
As for `CCCN1CCC(N[C@@H](C)CCCC(C)C)CC1`, the “% Inhibition” value is -8% and the Z score is listed as 1.02.
On to `Cc1cccc2c(N3CCOC4CCN(C)CC43)ncnc12` (centres undefined), for which the “% Inhibition” value was -4% and the Z score was determined as 0.54.
`CN(CC(=O)NCCc1ccc(Cl)cc1)S(=O)(=O)c1ccc2[nH]c(=O)oc2c1`: the “% Inhibition” value is reported as -8% and the Z score was determined as 0.84.
For `O=C(NCC#CCN1CCOCC1)c1ccco1` the same measures were -12% and 1.8.
For `Cn1cnnc1CS(=O)(=O)c1ccc(C#N)c(C(F)(F)F)c1` the same measures were -3% and 0.45.
For `O=C(c1cnc(-c2ccc3c(c2)OCO3)nc1Nc1cccc(F)c1)N1CCC2(CC1)OCCO2` the same measures were 5% and -0.51.
With `CC1(C)CC2CC(C)(CN2Cc2csnn2)C1` (centres undefined), the “% Inhibition” value was -1% and the Z score was 0.21.
Turning to `CC(C)N1C2CCC1CN(c1ccc(C#N)cn1)CC2` (centres undefined), the “% Inhibition” value was -9% and the Z score was 0.89.
With `CCCCc1nc(CN[C@@H](C)Cn2cc(C)cn2)no1`, the “% Inhibition” value was -3% and the Z score stood at 0.29.
In the case of `COc1ccc(N2C(=O)[C@@H]3C[C@H]2CN3Cc2ccccn2)cc1Cl`, the “% Inhibition” value is on record as 6% and the Z score is reported as -0.82.
As to `O=C(Nc1ccc(Cl)cc1C(=O)c1ccccc1F)c1cccc(S(=O)(=O)N2CCOCC2)c1`, the “% Inhibition” value is on record as -1% and the Z score came out at 0.24.
Consider `CCCN1CC2(CCN(c3ncnc(C)c3C)CC2)C[C@H]1C(=O)O`, for which the “% Inhibition” value is reported as -27% and the Z score worked out at 2.35.
In the case of `Cn1nc(CN2CCC[C@H](C#N)C2)c2c(Cl)cccc21`, the “% Inhibition” value is -12% and the Z score was 1.14.
`O=C(Oc1ccc2c(c1)CCC2)N1CCOCC1`: the “% Inhibition” value worked out at 0% and the Z score was 0.08.
On to `Cc1nc(CCN2CCOC3(CCCC3)C2)cs1`, for which the “% Inhibition” value is -3% and the Z score worked out at 0.44.
For `OC[C@H]1CN2CCC[C@H]2CN1c1cc(C2CC2)nc(C2CC2)n1` the same measures were 7% and -0.74.
In the case of `CN1CCC(O)(c2ccco2)C(C(=O)c2ccco2)C1` (centres undefined), the “% Inhibition” value is -8% and the Z score came to 1.05.
For `CN1CCCN(C(=O)Cc2cccn2-c2ccc(F)cc2)CC1` the same measures were -3% and 0.44.
With `c1ccc2c(C[C@H]3CCCNC3)c[nH]c2c1`, the “% Inhibition” value is on record as -6% and the Z score was 0.84.
As for `O=c1oc2cccnc2n1CCNC1CCCC1c1ccccc1C(F)(F)F` (centres undefined), the “% Inhibition” value turned out to be 18% and the Z score is reported as -1.88.
Turning to `CS(=O)(=O)c1cnn2cc(CN3CCC[C@@]4(CCOC4)C3)cnc12`, the “% Inhibition” value is -5% and the Z score was 0.77.
